# Source: the supplement of paper PMC4967469
# How the values were obtained:
# Test in all cases: Viability of human cancer cell lines after 72 h of drug (GDSC screen)
# AR-42 = compound: CC(C)[C@H](C(=O)Nc1ccc(C(=O)NO)cc1)c1ccccc1 [AR-42]; conditions: top dose 5.12 µM; top dose inferred
# Protocol: (§1)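 Human cancer cell lines in 384-well plates, medium with 10% serum, drug for 72 h over a 256-fold dose range (nine 2-fold or five 4-fold steps up to the top dose). Adherent lines were fixed and stained with the nucleic acid dye Syto60, suspension lines read with resazurin; signal relative to control wells, capped at 0 and 100%. One two-parameter sigmoid per drug and line, fitted in a mixed model over all curves with the slope shared within a line.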
# GDC0941 = compound: CS(=O)(=O)N1CCN(Cc2cc3nc(-c4cccc5[nH]ncc45)nc(N4CCOCC4)c3s2)CC1 [GDC0941]
# Protocol: as §1
# Pazopanib = compound: Cc1ccc(Nc2nccc(N(C)c3ccc4c(C)n(C)nc4c3)n2)cc1S(N)(=O)=O [Pazopanib]; conditions: top dose 8 µM
# Protocol: as §1
# [1] = top dose 4 µM, screen: GDSC drug entry 1527, top dose inferred
Cell Line,AUC (AR-42),IC50 (AR-42) [nM],AUC (GDC0941; [1]),IC50 (GDC0941; [1]) [nM],AUC (Pazopanib),IC50 (Pazopanib) [nM],AUC (GDC0941; screen: GDSC drug entry 1058),IC50 (GDC0941; screen: GDSC drug entry 1058) [nM]
"769-P (kidney, adherent)",0.457,242,0.711,1050,0.954,> 8000,–,–
"786-0 (kidney, adherent)",0.555,445,0.91,> 4000,0.903,> 8000,–,–
"A172 (glioma, adherent)",0.628,713,0.924,> 4000,0.802,3780,–,–
"A204 (rhabdomyosarcoma, adherent)",0.61,705,0.614,564,0.345,164,–,–
"A673 (rhabdomyosarcoma, adherent)",0.65,793,0.645,603,0.99,> 8000,–,–
"BCPAP (thyroid, adherent)",0.468,265,0.916,> 4000,0.927,> 8000,–,–
"BEN (non-small cell lung carcinoma, adherent)",0.659,945,0.922,> 4000,0.862,> 8000,–,–
"BFTC-909 (kidney, adherent)",0.741,1530,0.725,1070,0.929,> 8000,–,–
"BHY (head and neck, adherent)",0.538,406,0.783,1690,0.97,> 8000,–,–
"BICR31 (head and neck, adherent)",0.758,1800,–,–,0.956,> 8000,–,–
"BPH-1 (prostate, adherent)",0.403,168,0.654,703,0.84,6390,–,–
"CAL-54 (kidney, adherent)",0.571,514,0.626,588,0.82,5480,–,–
"CAMA-1 (breast, adherent)",0.734,1800,0.932,> 4000,0.984,> 8000,–,–
"CHP-134 (neuroblastoma, suspension)",0.422,185,–,–,–,–,–,–
"COLO-792 (melanoma, adherent)",0.819,2850,0.749,1280,0.987,> 8000,–,–
"COR-L105 (lung adenocarcinoma, adherent)",0.518,361,0.81,2690,0.847,7980,–,–
"COR-L303 (small cell lung carcinoma, suspension)",0.228,53.7,–,–,–,–,–,–
"Caov-3 (ovary, adherent)",0.829,2680,–,–,0.991,> 8000,–,–
"ChaGo-K-1 (non-small cell lung carcinoma, adherent)",0.783,2540,0.884,> 4000,0.899,> 8000,–,–
"GAMG (glioma, adherent)",0.459,247,0.658,703,0.793,3860,–,–
"GCT (soft tissue, adherent)",0.964,> 5120,0.905,> 4000,0.942,> 8000,–,–
"GP5d (large intestine, adherent)",0.603,595,0.82,1990,0.976,> 8000,–,–
"H2591 (mesothelioma, adherent)",0.81,3750,0.808,2880,0.81,5870,–,–
"H2803 (mesothelioma, adherent)",0.561,482,–,–,0.892,> 8000,–,–
"H2804 (mesothelioma, adherent)",0.676,1050,–,–,0.941,> 8000,–,–
"H2818 (mesothelioma, adherent)",0.757,1810,0.881,> 4000,0.972,> 8000,–,–

Cell Line,AUC (AR-42),IC50 (AR-42) [nM],AUC (GDC0941; [1]),IC50 (GDC0941; [1]) [nM],AUC (Pazopanib),IC50 (Pazopanib) [nM],AUC (GDC0941; screen: GDSC drug entry 1058),IC50 (GDC0941; screen: GDSC drug entry 1058) [nM]
"HCC1806 (breast, adherent)",0.598,580,0.931,> 4000,0.981,> 8000,–,–
"HLE (liver, adherent)",0.677,965,0.901,> 4000,0.7,1760,–,–
"HO-1-N-1 (head and neck, adherent)",0.649,797,0.731,1060,0.95,> 8000,–,–
"HPAC (pancreas, adherent)",0.658,1050,0.902,> 4000,0.897,> 8000,–,–
"HPAF-II (pancreas, adherent)",0.802,3480,0.696,1060,0.902,> 8000,–,–
"HSC-3 (head and neck, adherent)",0.798,2050,0.52,281,0.988,> 8000,–,–
"HTC-C3 (thyroid, adherent)",0.453,234,0.724,1180,0.969,> 8000,–,–
"Hs940-T (melanoma, adherent)",0.76,2170,0.899,> 4000,0.605,1040,–,–
"IM-95 (stomach, adherent)",0.549,438,0.873,> 4000,0.899,> 8000,–,–
"J82 (bladder, adherent)",0.895,> 5120,0.755,1350,0.725,2180,–,–
"KG-1 (acute myeloid leukaemia, suspension)",0.339,120,0.902,> 4000,0.584,827,–,–
"KOSC-2 (head and neck, adherent)",0.528,383,0.746,1320,0.985,> 8000,–,–
"KP-4 (pancreas, adherent)",0.583,536,0.823,2240,0.974,> 8000,–,–
"KYSE-180 (oesophagus, adherent)",0.501,322,0.869,3400,0.978,> 8000,–,–
"KYSE-270 (oesophagus, adherent)",0.74,1370,0.849,2360,0.936,> 8000,–,–
"LU-99A (large cell lung carcinoma, adherent)",0.807,2600,0.619,528,0.97,> 8000,–,–
"MDA-MB-157 (breast, adherent)",0.686,1070,0.918,> 4000,0.947,> 8000,–,–
"MFE-319 (endometrium, adherent)",0.922,> 5120,0.864,3310,0.896,> 8000,–,–
"MKN1 (stomach, adherent)",0.719,1380,0.647,655,0.918,> 8000,–,–
"ML-1 (thyroid, adherent)",0.509,341,0.904,> 4000,0.635,1260,–,–
"NCI-H196 (small cell lung carcinoma, adherent)",0.417,188,0.896,> 4000,0.985,> 8000,–,–
"NCI-H522 (lung adenocarcinoma, adherent)",0.389,149,–,–,0.866,> 8000,–,–
"NCI-H1573 (lung adenocarcinoma, adherent)",0.603,608,–,–,0.985,> 8000,–,–
"NCI-H1793 (lung adenocarcinoma, adherent)",0.838,> 5120,–,–,0.982,> 8000,–,–
"NCI-H1915 (large cell lung carcinoma, adherent)",0.521,366,0.964,> 4000,0.943,> 8000,–,–
"NCI-H2030 (lung adenocarcinoma, adherent)",0.671,1030,–,–,0.965,> 8000,–,–

Cell Line,AUC (AR-42),IC50 (AR-42) [nM],AUC (GDC0941; [1]),IC50 (GDC0941; [1]) [nM],AUC (Pazopanib),IC50 (Pazopanib) [nM],AUC (GDC0941; screen: GDSC drug entry 1058),IC50 (GDC0941; screen: GDSC drug entry 1058) [nM]
"PC-3 (prostate, adherent)",0.567,509,–,–,0.972,> 8000,–,–
"SN12C (kidney, adherent)",0.654,907,–,–,0.92,> 8000,–,–
"SNU-175 (large intestine, suspension)",0.436,216,–,–,–,–,–,–
"SNU-475 (liver, adherent)",0.638,731,–,–,0.988,> 8000,–,–
"SNU-1040 (large intestine, adherent)",0.978,> 5120,0.893,> 4000,–,–,–,–
"SU-DHL-10 (B-cell lymphoma, suspension)",0.09,30,0.784,1220,–,–,–,–
"SW1116 (large intestine, adherent)",0.503,327,0.898,> 4000,–,–,–,–
"VMRC-LCD (lung adenocarcinoma, adherent, top dose 4 µM)",–,–,–,–,–,–,0.97,> 4000
"VMRC-RCZ (kidney, adherent, top dose 4 µM)",–,–,–,–,–,–,0.889,> 4000
"WIL2-NS (lymphoid neoplasm, suspension, top dose 4 µM)",–,–,–,–,–,–,0.963,> 4000
"WM35 (melanoma, adherent, top dose 4 µM)",–,–,–,–,–,–,0.749,1310
"WM793B (melanoma, adherent, top dose 4 µM)",–,–,–,–,–,–,0.952,> 4000
"WM1552C (melanoma, adherent, top dose 4 µM)",–,–,–,–,–,–,0.884,> 4000
"WM-115 (melanoma, adherent, top dose 4 µM)",–,–,–,–,–,–,0.689,965
"WSU-DLCL2 (B-cell lymphoma, suspension, top dose 4 µM)",–,–,–,–,–,–,0.628,526
"WSU-NHL (lymphoid neoplasm, suspension, top dose 4 µM)",–,–,–,–,–,–,0.263,58.3
"YAPC (pancreas, adherent, top dose 4 µM)",–,–,–,–,–,–,0.914,> 4000
"YH-13 (glioma, adherent, top dose 4 µM)",–,–,–,–,–,–,0.551,347
"YKG-1 (glioma, adherent, top dose 4 µM)",–,–,–,–,–,–,0.833,2640
"YMB-1-E (breast, adherent)",0.818,4360,–,–,–,–,–,–
"YT (lymphoid neoplasm, suspension, top dose 4 µM)",–,–,–,–,–,–,0.242,52.1
"ZR-75-30 (breast, adherent, top dose 4 µM)",–,–,–,–,–,–,0.806,3490
"huH-1 (liver, adherent, top dose 4 µM)",–,–,–,–,–,–,0.715,1180
"no-11 (glioma, adherent, top dose 4 µM)",–,–,–,–,–,–,0.892,> 4000

# Lines with a small IC50 respond at low doses; a fit beyond the top or the lowest dose is shown as a bound at that dose. AUC is the area under the same curve over the 256-fold range up to the top dose, as a fraction: 1 means no effect, lower means more sensitive. For part of these data: A top dose marked as inferred comes from the curve model; the source does not state it. For part of these data: An entry number marks a drug with two screens in the source, which often give different values.
